PubChem BioAssay AID1794842 (National Center for Advancing Translational Sciences (NCATS), 2023)
Out of some 2,800 compounds screened, fewer than 10 were called active. Calls come from the whole dose curve; as a rule, active = well fitted curve in the direction sought with a large enough effect; inconclusive = small, poorly fitted or top-dose-only effect, or another doubt; inactive = no such curve, though single readings can be large or run the other way. This is one part of the list.
Note: % of control where 0% means no effect.

What follows are compounds tested against Metallo-beta-lactamase type 2 (Klebsiella pneumoniae) (UniProt C7C422) (assay: qHTS to identify inhibitors of the New Delhi Metallo-beta-lactamase (NDM): Meropenem screen against the machine-based learning selections.). Details: Purified NDM-1, meropenem hydrolysis, absorbance 300 nm; at 38.4 µM (top of the series) unless noted.
UniProt C7C422, sequence (C7C422 whole entry, looked up): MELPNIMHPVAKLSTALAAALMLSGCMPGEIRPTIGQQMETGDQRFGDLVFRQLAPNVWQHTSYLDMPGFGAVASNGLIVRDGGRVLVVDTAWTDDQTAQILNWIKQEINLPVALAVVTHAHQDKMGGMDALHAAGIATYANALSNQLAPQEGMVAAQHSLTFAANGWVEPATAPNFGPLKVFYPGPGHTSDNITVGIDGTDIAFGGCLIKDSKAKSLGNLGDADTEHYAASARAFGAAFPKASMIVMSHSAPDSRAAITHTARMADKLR
Method in brief: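 NDM-1 (2 nM final) in 50 mM HEPES pH 7.0, 1 uM Zn2SO4, 0.01% Tween20 was preincubated with compounds for >30 min. Nitrocefin (16.7 uM final) was read at 485 nm after 15 min, and meropenem (50 uM final) at 300 nm after 30 min.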
With Cc1ccc2oc(C(=O)N(C)Cc3nc(-c4cccnc4)no3)c(C)c2c1 the activity change, negative = inhibition was inactive: -3.19%.
For O=C(NCCCn1ccnn1)[C@H]1CNC[C@@H](C(=O)N2CCCC2)C1, the activity change, negative = inhibition was inactive: -0.274%.
For CC(=O)c1cc(CC(=O)N2CCC3(CCCN(C(C)C)C3=O)C2)cs1 (centres undefined), the activity change, negative = inhibition was inactive: 3.7%.
CC(C)C[C@@H]1N[C@H](C(=O)O)Cc2cn(CC3CC3)c3cccc1c23 was tested, and the activity change, negative = inhibition was inactive: 58.8% [at 57.5 µM].
For O=c1[nH]c(N2CCOCC2)nc2c1CCN(Cc1ccc(C(F)(F)F)cc1)CC2, the activity change, negative = inhibition was inactive: 3.98%.
For COc1ccc2nc([C@H]3CCN(C4CCN(C(C)=O)CC4)C3)[nH]c2c1, the activity change, negative = inhibition was inactive: -2.57% [at 57.5 µM].
For CN(CCc1nc2ccc(Cl)cc2[nH]1)c1cc(C2CC(O)C2)nc(N)n1 (centres undefined), the activity change, negative = inhibition was inactive: -2.51%.
In the case of OC(c1ccccc1)c1nc(Nc2ccc3c(c2)OCO3)n[nH]1 (centres undefined), the activity change, negative = inhibition is reported as inactive: 6.75% [at 57.5 µM].
In the case of Cc1csc(NC(=O)[C@@H]2CCC[C@@H](NCC3CC3)CN(C)C(=O)C2)n1, the activity change, negative = inhibition is reported as inactive: 2.25% [at 57.5 µM].
For Clc1ccccc1C1(c2ccnc(NCCc3cccnc3)n2)CCNCC1, the activity change, negative = inhibition was inactive: 52%.
With O=C(Nc1cccnc1)c1ccnc(-c2nnc3ccc(N4CCOCC4)nn23)c1 the activity change, negative = inhibition was inactive: 16.9% [at 57.5 µM].
With O=C(N[C@@H]1CN(C(=O)Nc2ccccc2)CCC[C@H]1O)c1ccc(OCCN2CCOCC2)cc1 the activity change, negative = inhibition was inactive: 4.48%.
With COCCOc1ccnc(-c2noc([C@@H]3CCCN3CC3CC3)n2)c1 the activity change, negative = inhibition was inactive: -6.12% [at 57.5 µM].
With O=C(Cc1c[nH]c2ncc(-c3cccnc3)cc12)NCc1ccccc1 the activity change, negative = inhibition was inactive: 2.84% [at 57.5 µM].
Cc1ncc2n1C(=O)N(C1CCN(Cc3cccnc3)CC1)C2 was tested, and the activity change, negative = inhibition was inactive: 11.4% [at 57.5 µM].
O=c1cc(-c2ccncc2)oc2c(-c3cccc(CO)c3)nccc12 was tested, and the activity change, negative = inhibition was inactive: 8.35% [at 57.5 µM].
With O=C(Nc1cccc(F)c1)N1C[C@@H]2C[C@H](C1)c1c(-c3cc4ccccc4s3)ccc(=O)n1C2 the activity change, negative = inhibition was inactive: 3.89%.
For CC1=C[C@@H](CO)[C@H](C(C)C)C[C@H]1Cc1nnc(C(C)(C)C)o1, the activity change, negative = inhibition was inactive: -1.22% [at 57.5 µM].
With CC(NC(=O)c1ccc2cccc(F)c2n1)c1ccccc1-n1cccn1 (centres undefined) the activity change, negative = inhibition was inactive: -0.675%.
C[C@@H](Nc1ccc(-c2nc(CCCc3ccccc3)no2)cn1)C(N)=O was tested, and the activity change, negative = inhibition was inactive: 13.1%.
With O=C(Nc1ccc(F)cc1)N1CC[C@H]2COC(=O)N2c2cc(F)ccc2C1 the activity change, negative = inhibition was inactive: -1.42% [at 57.5 µM].
With CC(C)c1ccc(N2C(=O)N[C@@H]3CCN(S(=O)(=O)c4cccs4)[C@@H]3C2=O)cc1 the activity change, negative = inhibition was inactive: 1.99% [at 57.5 µM].
For Cc1noc2nc3c(c(C(=O)N[C@H]4CC[C@H]4N)c12)CCC3, the activity change, negative = inhibition was inactive: 8.23%.
For Cc1ccc([S+](=O)([O-])N2CCn3c(nnc3-c3ccccc3)C2)cc1, the activity change, negative = inhibition was inactive: 0.0143%.
With O=C(NCC1CN(Cc2ccncc2)CC12CN(c1ccccc1)C2)Nc1ccccc1 (centres undefined) the activity change, negative = inhibition was inactive: -1.7% [at 57.5 µM].
With CCCN1CC2(CCN(Cc3cn[nH]c3C(=O)O)CC2)CC1C(=O)O (centres undefined) the activity change, negative = inhibition was inactive: 32.3%.
With CC(C)NC(=O)N[C@H]1CCN(C(=O)c2cnccn2)[C@@H]1C(=O)N[C@@H](Cc1cccs1)C(N)=O the activity change, negative = inhibition was inactive: 3.59%.
Cc1ccc(-n2nc3n(c2=O)CCN(C(=O)c2ccccc2C)C3)cc1 was tested, and the activity change, negative = inhibition was inactive: -0.0608% [at 57.5 µM].
With Cc1ccccc1-c1[nH]nc2ncc(-c3cn[nH]c3)nc12 the activity change, negative = inhibition was inactive: 3.81% [at 76.7 µM].
With Cc1cnn(Cc2cc(C(=O)N3CCCCCC3c3nnc(-c4ccccc4)o3)no2)c1 (centres undefined) the activity change, negative = inhibition was inactive: 10.9%.
With CC1=C[C@@H](CNS(C)(=O)=O)[C@H](C(C)C)C[C@H]1Cc1nc2ccc(Cl)cc2[nH]1 the activity change, negative = inhibition was inactive: 5.83% [at 57.5 µM].
COC(=O)c1cc2n(n1)CCN(C(=O)c1cccc3c1OCC3)C2 was tested, and the activity change, negative = inhibition was inactive: 0.0731%.
With CNC(=O)[C@@H](Cc1ccccc1)N1CCC[C@H]1C(=O)N1CCCCC1 the activity change, negative = inhibition was inactive: 1.5% [at 57.5 µM].
With C#CCNC(=O)c1onc(-c2ccc(F)cc2)c1[C@H](C)O the activity change, negative = inhibition was inactive: 32.7% [at 76.7 µM].
In the case of O=C1NC(=O)C(c2ccc(-c3ccc4nc[nH]c(=O)c4c3)cc2)N1 (centres undefined), the activity change, negative = inhibition is reported as inactive: 7.87%.
For COc1ccc(C(=O)NCC2(COc3ccc(S(C)(=O)=O)cc3)C[C@@H](O)[C@@H](O)C2)cc1 (some centres undefined), the activity change, negative = inhibition was inactive: 2.29%.
For CC(C)(C)c1coc([C@@H]2COCCN2Cc2ccc(F)cc2)n1, the activity change, negative = inhibition was inactive: -0.0731% [at 57.5 µM].
For N#Cc1cccc(CN2CC[C@H](c3nnc(-c4ccco4)o3)C2)c1, the activity change, negative = inhibition was inactive: 0.792% [at 57.5 µM].
In the case of CCOc1ccc(C(=O)N2CCC3(CC2)N(C)C(=O)CS3(=O)=O)cc1, the activity change, negative = inhibition is reported as inactive: 0.778%.
